# According to the supplement of paper PMC12217912:
# Some of the results follow. The full chains were built here from the parent and the listed change. Inactive controls read about 0.05.
# B1: TEV protease; numbered along this chain (parent)
# chain: MGESLFKGPRDYNPISSSICHLTNESDGHTTSLYGIGFGPFIITNKHLFRRNNGTLVVQSLHGVFKVKDTTTLQQHLVDGRDMIIIRMPKDFPPFPQKLKFREPQREERICLVTTNFQTKSMSSMVSDTSCTFPSGDGIFWKHWIQTKDGQCGSPLVSTRDGFIVGIHSASNFTNTNNYFTSVPKNFMELLTNQEAQQWVSGWRLNADSVLWGGHKVFMVKPEEPFQPVKEATQL
# Variants of: B1
# Assay: raw area under fraction-flipped curve 0-4 h after induction (AUC4h, not background-subtracted), DNA-recorder readout of cleavage of the substrate (dimensionless); higher = more cleavage of the substrate by the protease variant
# Details: temperature: 34 °C; time window: 0-4 h after rhamnose induction
# Method: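 In vivo DNA recorder in E. coli TOP10(DE3) ΔrhaA at 34 °C. Each TEVp single-site mutant (parent TEVp 0) is paired with a single-site variant of the 7-mer TEVs (canonical ENLYFQ|S). The substrate sits between flexible linkers in a Bxb1-sfGFP-TEVs-SsrA fusion, so cleavage stabilises Bxb1 and speeds flipping of a recombination array, read by NGS. The value is the raw area under the fraction-flipped curve over 0-4 h after rhamnose induction (AUC4h), with ≥20 reads per time point. It is not background-subtracted; inactive controls average about 0.047.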
# 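Also: Bxb1 expression induced with 0.2% (w/v) L-rhamnose at OD600 near 0.5, cultures sampled hourly, flipped fraction per protease–substrate barcode pair counted by paired-end Illumina sequencing.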
variant,measurement,value
MGESLFKGPRDYNPISSSICHLTNESDGHTTSLYGIGFGPFIITNKHLFRRNNGTLVVQSLHGVFKVKDTTTLQQHLVDGRDMIIIRMPKDFPPFPQKLKFREPQREERICLVTTNFQTKSMSSMVSDTSCTFPSGDGIFWKHWIQTKEGQCGSPLVSTRDGFIVGIHSASNFTNTNNYFTSVPKNFMELLTNQEAQQWVSGWRLNADSVLWGGHKVFMVKPEEPFQPVKEATQL [D149E],area with substrate ENLYFDS,0.0593
same,area with substrate ENLYFES,0.0625
same,area with substrate ENLYFFS,0.0593
same,area with substrate ENLYFGS,0.0795
same,area with substrate ENLYFIS,0.0629
same,area with substrate ENLYFKS,0.0578
same,area with substrate ENLYFLS,0.0622
same,area with substrate ENLYFPS,0.0603
same,area with substrate ENLYFRS,0.0345
same,area with substrate ENLYFTS,0.0559
same,area with substrate ENLYFVS,0.0591
MGESLFKGPRDYNPISSSICHLTNESDGHTTSLYGIGFGPFIITNKHLFRRNNGTLVCQSLHGVFKVKDTTTLQQHLVDGRDMIIIRMPKDFPPFPQKLKFREPQREERICLVTTNFQTKSMSSMVSDTSCTFPSGDGIFWKHWIQTKDGQCGSPLVSTRDGFIVGIHSASNFTNTNNYFTSVPKNFMELLTNQEAQQWVSGWRLNADSVLWGGHKVFMVKPEEPFQPVKEATQL [V58C],area with substrate ENLYFDS,0.0828
same,area with substrate ENLYFFS,0.0588
same,area with substrate ENLYFIS,0.0605
same,area with substrate ENLYFNS,0.0612
same,area with substrate ENLYFPS,0.0509
same,area with substrate ENLYFTS,0.0484
MGESLFKGPRDYNPISSSICHLTNESDGHTTSLYGIGFGPFIITNKHLFRRNNGTLVYQSLHGVFKVKDTTTLQQHLVDGRDMIIIRMPKDFPPFPQKLKFREPQREERICLVTTNFQTKSMSSMVSDTSCTFPSGDGIFWKHWIQTKDGQCGSPLVSTRDGFIVGIHSASNFTNTNNYFTSVPKNFMELLTNQEAQQWVSGWRLNADSVLWGGHKVFMVKPEEPFQPVKEATQL [V58Y],area with substrate ENLYFDS,0.069
same,area with substrate ENLYFES,0.0536
same,area with substrate ENLYFIS,0.0328
same,area with substrate ENLYFLS,0.035
same,area with substrate ENLYFMS,0.0541
same,area with substrate ENLYFNS,0.0522
same,area with substrate ENLYFPS,0.0423
same,area with substrate ENLYFSS,0.0456
same,area with substrate ENLYFTS,0.0559
same,area with substrate ENLYFVS,0.0437
same,area with substrate ENLYFYS,0.0328
MGESLFKGPRDYNPISSSICHLTNESDGHTTSLYGIGFGPFIITNKHLFRRNNGTLVVQSLHGVFKVKDTTTLQQHLVDGRDMIIIRMPKDFPPFPQKLKFREPQREERICLVTTNFQTKSMSSMVSDTSCTFPSGDGKFWKHWIQTKDGQCGSPLVSTRDGFIVGIHSASNFTNTNNYFTSVPKNFMELLTNQEAQQWVSGWRLNADSVLWGGHKVFMVKPEEPFQPVKEATQL [I139K],area with substrate ENLYFDS,0.061
same,area with substrate ENLYFES,0.057
same,area with substrate ENLYFHS,0.066
same,area with substrate ENLYFLS,0.0588
same,area with substrate ENLYFMS,0.0652
same,area with substrate ENLYFNS,0.0818
same,area with substrate ENLYFPS,0.0504
same,area with substrate ENLYFRS,0.082
same,area with substrate ENLYFSS,0.0522
same,area with substrate ENLYFTS,0.0644
same,area with substrate ENLYFVS,0.0694
same,area with substrate ENLYFYS,0.0457
MGESLFKGPRDYNPISSSICHLTNESDGHTTSLYGIGFGPFIITNKHLFRRNNGTLVVQSLHGVFKVKDTTTLQQHLVDGRDMIIIRMPKDFPPFPQKLKFREPQREERICLVTTNFQTKSMSSMVSDTSCTFPSGDGIFWKHWIQTKDGQCGSTLVSTRDGFIVGIHSASNFTNTNNYFTSVPKNFMELLTNQEAQQWVSGWRLNADSVLWGGHKVFMVKPEEPFQPVKEATQL [P155T],area with substrate ENLYFDS,0.0422
same,area with substrate ENLYFES,0.0609
same,area with substrate ENLYFHS,0.0453
same,area with substrate ENLYFIS,0.0594
same,area with substrate ENLYFKS,0.0567
same,area with substrate ENLYFLS,0.0614
same,area with substrate ENLYFMS,0.0488
same,area with substrate ENLYFPS,0.0647
MGESLFKGPRDYNPISSSICHLTNESDGHTTSLYGIGFGPFIITNKHLFRRNNGTLVVQSLHGVFKVKDTTTLQQHLVDGRDMIIIRMPKDFPPFPQKLKFREPQREERICLVTTNFQTKSMSSMVSDTSCTFPSGDGIFWKHWIQTKDGQCGSPLVSTRDGFIVGIHSASNFTNTNNYFTSVPKNFFELLTNQEAQQWVSGWRLNADSVLWGGHKVFMVKPEEPFQPVKEATQL [M188F],area with substrate ENLYFDS,0.0721
same,area with substrate ENLYFES,0.059
same,area with substrate ENLYFFS,0.0687
same,area with substrate ENLYFIS,0.0667
same,area with substrate ENLYFMS,0.0678
same,area with substrate ENLYFNS,0.0626
same,area with substrate ENLYFPS,0.0488
same,area with substrate ENLYFRS,0.0784
same,area with substrate ENLYFSS,0.0499
same,area with substrate ENLYFWS,0.0558
MGESLFKGPRDYNPISSSICHLTNESDGHTTSLYGIGFGPFIITNKHLFRRNNGTLVVQSLHGVFKVKDTTTLQQHLVDGRDMIIIRMPKDFPPFPQKLKFREPQREERICLVTTNFQTKSMSSMVSDTSCTFPSGDGIFWKHWIQTKDGQCGSPLVSTRDGFIVGIHSASNFTNTNNYFTSVPKNFMELLTNQEAQQWVSGWRLNADSVLWGGHYVFMVKPEEPFQPVKEATQL [K216Y],area with substrate ENLYFDS,0.0614
same,area with substrate ENLYFES,0.0557
same,area with substrate ENLYFFS,0.0674
same,area with substrate ENLYFGS,0.0527
same,area with substrate ENLYFIS,0.0371
same,area with substrate ENLYFLS,0.0772
same,area with substrate ENLYFMS,0.0073
same,area with substrate ENLYFNS,0.0634
same,area with substrate ENLYFPS,0.0605
same,area with substrate ENLYFRS,0.131
same,area with substrate ENLYFSS,0.052
same,area with substrate ENLYFWS,0.0512
same,area with substrate ENLYFYS,0.0726
MGESLFKGPRDYNPISSSICHLTNESDGHTTSLYGIGFGPFIITNKHLFRRNNGTLVVQSLHGVFKVKDTTTLQQHLVDGRDMIIIRMPKDFPPFPQKLKFREPQREERICLVTTNFQTKSMSSMVSDTSCTFASGDGIFWKHWIQTKDGQCGSPLVSTRDGFIVGIHSASNFTNTNNYFTSVPKNFMELLTNQEAQQWVSGWRLNADSVLWGGHKVFMVKPEEPFQPVKEATQL [P134A],area with substrate ENLYFDS,0.0725
same,area with substrate ENLYFES,0.0631
same,area with substrate ENLYFFS,0.0694
same,area with substrate ENLYFNS,0.0584
same,area with substrate ENLYFRS,0.0639
same,area with substrate ENLYFSS,0.0676
same,area with substrate ENLYFWS,0.0491
same,area with substrate ENLYFYS,0.0528
MGESLFKGPRDYNPISSSICHLTNESDGHTTSLYGIGFGPFIITNKHLFRRNNGTLVVQSLHGVFKVKDTTTLQQHLVDGRDMIIIRMPKDFPPFPQKLKFREPQREERICLVSTNFQTKSMSSMVSDTSCTFPSGDGIFWKHWIQTKDGQCGSPLVSTRDGFIVGIHSASNFTNTNNYFTSVPKNFMELLTNQEAQQWVSGWRLNADSVLWGGHKVFMVKPEEPFQPVKEATQL [T114S],area with substrate ENLYFCS,0.0698
same,area with substrate ENLYFDS,0.0597
same,area with substrate ENLYFFS,0.066
same,area with substrate ENLYFGS,0.068
same,area with substrate ENLYFHS,0.0596
same,area with substrate ENLYFIS,0.0649
same,area with substrate ENLYFMS,0.0636
same,area with substrate ENLYFNS,0.0654
same,area with substrate ENLYFPS,0.0529
same,area with substrate ENLYFRS,0.0641
same,area with substrate ENLYFSS,0.0521
same,area with substrate ENLYFTS,0.0458
same,area with substrate ENLYFWS,0.0575
MGESLFKGPRDYNPISSSICHLTNESDGHTTSLYGIGFGPFIITNKHLFRRNNGTLVVQSYHGVFKVKDTTTLQQHLVDGRDMIIIRMPKDFPPFPQKLKFREPQREERICLVTTNFQTKSMSSMVSDTSCTFPSGDGIFWKHWIQTKDGQCGSPLVSTRDGFIVGIHSASNFTNTNNYFTSVPKNFMELLTNQEAQQWVSGWRLNADSVLWGGHKVFMVKPEEPFQPVKEATQL [L61Y],area with substrate ENLYFDS,0.0533
same,area with substrate ENLYFES,0.0749
same,area with substrate ENLYFFS,0.0493
same,area with substrate ENLYFGS,0.0634
same,area with substrate ENLYFHS,0.0524
same,area with substrate ENLYFKS,0.0691
same,area with substrate ENLYFLS,0.0598
same,area with substrate ENLYFMS,0.0498
same,area with substrate ENLYFNS,0.0706
same,area with substrate ENLYFPS,0.0553
same,area with substrate ENLYFRS,0.0603
same,area with substrate ENLYFSS,0.0656
same,area with substrate ENLYFTS,0.0658
same,area with substrate ENLYFYS,0.0698
